# Test results taken from article PMC5892938.
# The other results are listed elsewhere or left out. At the low end of the ranking, values are background and their order means little.
# Target: GST-SBP-SLBP (stem-loop binding protein) (UniProt Q14493)
# Assay: targeted RNA Bind-n-Seq;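 also: DESeq read counts versus GST-SBP nonspecific binding control pulldown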
# Settings: RBNS binding buffer: 25 mM Tris pH 7.5, 150 mM KCl, 3 mM MgCl2, 0.1% Tween, 0.5 mg/mL BSA, 1 mM DTT; 27 nM protein, 750 pM RNA pool; temperature not stated; high values mean tight binding
row,Sequence,binding signal (log2 fold change)
1,GGUCACGUCUCAAUCAACUCUUUUCCAGGAGUUUUCUCCUGCAAUUUCAACAGCUCGCAGUCAAG,-0.0511
2,GGUCACGUCUCAAUCAACUCAUCCCCAGGAGUUUACUCCUGUUUACUCAACAGCUCGCAGUCAAG,0.244
3,GGUCACGUCUCAAUCAACUCUAAAGAGGGGGGGAAAACCCCUUUGCCCUCGAUAUCAACAGCUCGCAGUCAAG,-0.0555
4,GGUCACGUCUCAAUCAACUCAAUGUCAGGAGUUUCCUCCUGUUUUCUCAACAGCUCGCAGUCAAG,0.0273
5,GGUCACGUCUCAAUCAACUCUACUUCCAGGGAAAUCCCUGGCAAUUUCAACAGCUCGCAGUCAAG,-0.311
6,GGUCACGUCUCAAUCAACUCAUAAGAGGGGGGGAAAACCCCUUUACCCUCCAUUUCAACAGCUCGCAGUCAAG,-0.122
7,GGUCACGUCUCAAUCAACUCAUCCCCAGGAGUUUGCUCCUGUAUACUCAACAGCUCGCAGUCAAG,-0.107
8,GGUCACGUCUCAAUCAACUCUUCUUCAGGAGUUUUCUCCUGUUAACUCAACAGCUCGCAGUCAAG,0.0848
9,GGUCACGUCUCAAUCAACUCUUUCUCCAGGGAAAGCCCUGGCUAAUUCAACAGCUCGCAGUCAAG,0.131
10,GGUCACGUCUCAAUCAACUCUUAAGAGGGGGGGAAAACCCCUUUACCCUCCUAUUCAACAGCUCGCAGUCAAG,-0.332
11,GGUCACGUCUCAAUCAACUCUCUAGAGGGGGGGAAAACCCCUUUGCCCUCAUAUUCAACAGCUCGCAGUCAAG,-0.324
12,GGUCACGUCUCAAUCAACUCUUCUUCCAGGGAAAGCCCUGGCAAUUUCAACAGCUCGCAGUCAAG,0.105
13,GGUCACGUCUCAAUCAACUCACUAGAGGGGGGGAAAACCCCUUUGCCCUCCAUUUCAACAGCUCGCAGUCAAG,0.0554
14,GGUCACGUCUCAAUCAACUCAAAAGAGGGGGGGAAAACCCCUUUGCCCUCCAAAUCAACAGCUCGCAGUCAAG,0.2
15,GGUCACGUCUCAAUCAACUCUAUCCCCAGGGAAAGCCCUGGCAAUCUCAACAGCUCGCAGUCAAG,-0.0939
16,GGUCACGUCUCAAUCAACUCUUCUCCCAGGGAAACCCCUGGUAAUCUCAACAGCUCGCAGUCAAG,0.246
17,GGUCACGUCUCAAUCAACUCUUCCUCAGGAGUUUUCUCCUGCUAAUUCAACAGCUCGCAGUCAAG,0.0828
18,GGUCACGUCUCAAUCAACUCAUUCUCCAGGGAAAUCCCUGGCUUUCUCAACAGCUCGCAGUCAAG,0.0849
19,GGUCACGUCUCAAUCAACUCAUCCCCAGGAGUUUCCUCCUGUAAAGUCAACAGCUCGCAGUCAAG,0.227

row,Sequence,binding signal (log2 fold change)
1,GGUCACGUCUCAAUCAACUCAUCUCCAGGAGUUUACUCCUGUUUACUCAACAGCUCGCAGUCAAG,0.206
2,GGUCACGUCUCAAUCAACUCAUAUGAGGGGGGGAAAACCCCUUUACCCUCCAUUUCAACAGCUCGCAGUCAAG,-0.3
3,GGUCACGUCUCAAUCAACUCUAUCUCCAGGGAAAACCCUGGUUUUUUCAACAGCUCGCAGUCAAG,-0.0223
4,GGUCACGUCUCAAUCAACUCUUCCCCCAGGGAAAACCCUGGCUUACUCAACAGCUCGCAGUCAAG,0.128
5,GGUCACGUCUCAAUCAACUCAUAAGAGGGGGGGAAAACCCCUUUACCCUCACUAUCAACAGCUCGCAGUCAAG,-0.101
6,GGUCACGUCUCAAUCAACUCUAUCUCCAGGGAAACCCCUGGCAUGUUCAACAGCUCGCAGUCAAG,-0.181
7,GGUCACGUCUCAAUCAACUCAUCGUCAGGAGUUUCCUCCUGUUAACUCAACAGCUCGCAGUCAAG,0.0303
8,GGUCACGUCUCAAUCAACUCUUUCCCCAGGGAAAUCCCUGGUAAAUUCAACAGCUCGCAGUCAAG,-0.139
9,GGUCACGUCUCAAUCAACUCUUUCCCCAGGGAAAACCCUGGUAUUUUCAACAGCUCGCAGUCAAG,0.134
10,GGUCACGUCUCAAUCAACUCAUCCGCAGGAGUUUACUCCUGGUAUUUCAACAGCUCGCAGUCAAG,0.0873
11,GGUCACGUCUCAAUCAACUCUUUUCCCAGGGAAACCCCUGGUUAACUCAACAGCUCGCAGUCAAG,-0.106
12,GGUCACGUCUCAAUCAACUCAGUCCCAGGAGUUUACUCCUGUUUUUUCAACAGCUCGCAGUCAAG,0.0919
13,GGUCACGUCUCAAUCAACUCUUCUUCCAGGGAAAACCCUGGUAAAUUCAACAGCUCGCAGUCAAG,0.0774
14,GGUCACGUCUCAAUCAACUCUACUUCCAGGGAAAUCCCUGGCUAACUCAACAGCUCGCAGUCAAG,0.234
15,GGUCACGUCUCAAUCAACUCAACGGAGGGGGGGAAAACCCCUUUACCCUCAUCCUCAACAGCUCGCAGUCAAG,-0.00288
16,GGUCACGUCUCAAUCAACUCUUUUCCAGGAGUUUCCUCCUGUUUUCUCAACAGCUCGCAGUCAAG,0.148
17,GGUCACGUCUCAAUCAACUCUUUCUCCAGGGAAACCCCUGGUAUUCUCAACAGCUCGCAGUCAAG,-0.0572
18,GGUCACGUCUCAAUCAACUCAAUCCCAGGAGUUUUCUCCUGUAUAUUCAACAGCUCGCAGUCAAG,0.139
